Assay results published in the RNAGym collection of RNA variant scans (doi:10.1073/pnas.2313332121).
Variants at the background level are over-represented here.

B1: TPR 5TU (parent)
chain: GGAUCUUCUCGAUCUAACAAAAAAGACAAAUCUGCCACAAAGCUUGAGAGCAUCUUCGGAUGCAGAGGCGGCAGCCUUCGGUGGCGCGAUAGCGCCAACGUUCUCAACUAUGACACGCAAAACGCGUGCUCCGUUGAAUGGAGUUUAUCAUG

Variants of: B1
Experiment: polymerase ribozyme fitness, log enrichment relative to wild type (log ratio); higher = more active; in vitro selection for triplet polymerase activity
In short: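 Each subunit of a heterodimeric triplet polymerase ribozyme was represented by a PCR-built, transcribed mutant library that underwent triplicate single-round in vitro selection with frozen incubation at −7 °C. Extended constructs were recovered by gel excision, streptavidin-bead capture and RT-PCR, and Illumina sequencing of input and output libraries kept genotypes with ≥10 input reads and ≥1 read per output. Fitness is the logarithm of genotype enrichment relative to wild-type enrichment, from inverse-variance-weighted replicate averages, with a logarithm base of 2.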

Variant	polymerase ribozyme fitness (log ratio)
C14G A23C U45A G48C C69U G88A C114A C123A	≤ -4.2
C14A U55A U56A G70C U77G C85A G94A G126C U148A	≤ -4.2
C14A C35G G59C A64C A73G G141U	≤ -4.2
C14G C18U U144C	-2.22
C14A A52G C85U A113C	-4.15
C14G U31A U44A A73U C96U C132A	≤ -4.2
C14A A16U A49G G50A C57A A60G C95G U101C A110G	≤ -4.2
C14G A30U U33G A49C A52U C72G A73G C87U U144G	≤ -4.2
C14A C32U C108G A120U U139G	≤ -4.2
C14G A20C C54U C85G G86U U135G U144A	≤ -4.2
C14A C35U U61A A64G C69G G86A C99G	≤ -4.2
C14G C35A A60G U130C U134C	≤ -4.2
U13G G42A U56G G86U G133C G143U U146C	≤ -4.2
C14G A97U A98G	-2.74
U13G G84A C85A C116A G143C	≤ -4.2
C14G A29U A30G C96U	≤ -4.2
C14G A16U C32U A40G G50U U55A G58A A89G C95A C114A G141C	≤ -4.2
C14G A37U A64C U111G	≤ -4.2
C14G A40C G48U C131A G133A	≤ -4.2
U13G U33G U56A A60U G143U	≤ -4.2
U13G U55A G94A G100A G140U	-4.11
C14G G48A A119G	-3.43
C14G A16G A19U A30C G59A G71A G74C U102A G140U	≤ -4.2
C14G A24U U104C A120C A138U	≤ -4.2

Variant	polymerase ribozyme fitness (log ratio)
C14A U45A A49U U53G G83U C116G	≤ -4.2
C14G A19G G42C U44G G59C C87A	≤ -4.2
C14A C38A C93G	≤ -4.2
C14G A73G C85A A97G G117U A119G G133A A138U C149U G152U	≤ -4.2
C14G U15G C54U G58U C87G C105U G143A	≤ -4.2
C14G C27G U55G G68A U82A G94C A107U A142G	≤ -4.2
C14G A23U G74U C87U C96A	≤ -4.2
C14G C79U G94C U101G C118A G141A A150U	≤ -4.2
C14G A73U G84C C87A G124C	≤ -4.2
U13G U61A U111A	≤ -4.2
C14G A30C A49C A52G C96G A98U	≤ -4.2
C14A A19C G58U A89U	-2.28
C14G A16C A23G A30U C43U C85A C99U C114U	≤ -4.2
C14A C54G A66C G94A C103G	≤ -4.2
C14G A26U U31G G50C G65A A122G	≤ -4.2
C14G A23C A30C C43G C76A G80C A107G A138G	≤ -4.2
C14A G68A A73C G84A G88A G117C	≤ -4.2
C14A G50A U77G A98U	≤ -4.2
C14G A23C G25U A115G C116A A120U	≤ -4.2
C14G A24C A49G G92C	≤ -4.2
U13G G58A C95U C96G	-4.19
C14A A39U A49U U82C	≤ -4.2
U13G G59A C85U A110U	≤ -4.2
C14G C18G A52C U77C C87A A106G U146C	≤ -4.2

Variant	polymerase ribozyme fitness (log ratio)
C14G A39U G74C G81U C87U C103G G126A G133C G152U	≤ -4.2
C14G G48C U146A	-4.06
C14G C35U G42C A52U C75A C79G G92C C118U G140C	-4.09
C14A A24G C57G C76U G92U A137G G143U U146A	≤ -4.2
C14G A107G	≤ -4.2
C14G G58C G92U A113U C132U	≤ -4.2
C14G U15A C54U C69A C99A U148A	≤ -4.2
C14A G83A C93G A107G	≤ -4.2
C14A U15A G50U A66G U101G C114U C118G G133A A137G	≤ -4.2
C14A A19C C93U C125A	-3.52
C14G A20C A40C A89C	-4.13
U13G G83C U145C	-3.39
C14G A24U G70C A91C U127G	≤ -4.2
C14A C43U G58C C75G	≤ -4.2
C14G A39U U55G C95U	≤ -4.2
C14A A23C U56A C75G U77A C93U C95G U102C	≤ -4.2
C14G U33A G71A C85G A138C G140U	≤ -4.2
C14G A26G U56G A73U G143A	≤ -4.2
C14G A64C G70C C114A A122C	≤ -4.2
C14G A137U	≤ -4.2
U13G G83C C99G C118G C123U A137G	≤ -4.2
C14G A24C A41U A64U C76G U90C C99U	≤ -4.2
C14G A29G U33C A37U U111G G124U U134A	≤ -4.2
C14G A21U A52G C85A C118G G128A G141C	≤ -4.2

Variant	polymerase ribozyme fitness (log ratio)
C14A A21U G59U G133C	-3.06
C14G A39C A52G C95U A142C U144G	≤ -4.2
C14A A73U C85U C99G C125A	≤ -4.2
C14A G25U U55A G83A C96A	≤ -4.2
C14G A39U A49G C54G C75G G83U U148C A150U G152A	≤ -4.2
C14A A29U U44A U53G G70U G84U C96G U148A	≤ -4.2
C14G A22U A39C A97U	≤ -4.2
C14G A23U G67C C79A C85G G143U	≤ -4.2
C14A A73G C96U A138U G141A	≤ -4.2
C14G A23U U31G U33C U45A G46U C57A G70C G94A A97C	≤ -4.2
C14G A40C G42C G48A G86U G92U C99A	≤ -4.2
C14G U15A C18U G25U C27G G62A C85G A138C	≤ -4.2
C14A A16G A20G U56A U82G A106G	-3.04
C14G A24U	-3.18
C14G U15G C18G U55G G68A	≤ -4.2
C14G G112C U134G	≤ -4.2
C14G G86C	≤ -4.2
C14A U31A A73G C96U A142C	≤ -4.2
U13G C76A	-2.11
C14G C85U C96U A113C A122U G143A	≤ -4.2
U13G U31C A49C C75A C85G G143C	≤ -4.2
C14A A28U C38U A91G	≤ -4.2
U13G G34A U44A C57G C93U	≤ -4.2
C14G C75U	-2.58

Variant	polymerase ribozyme fitness (log ratio)
C14A C85A C129U	-2.79
C14A U44A G50C U53A C54U G81U G84C U145C	≤ -4.2
U13G C87G	≤ -4.2
U13G G80C G94U U134A	≤ -4.2
C14G A19C	-1.66
C14G C96A A107C A150C	≤ -4.2
C14G A73C G92C C96U C118U G143A A147C U148C	≤ -4.2
C14G C51U G92A G112C	≤ -4.2
C14G A19U A30U U31A A39C C54A A73U C99G A121C U139G	≤ -4.2
C14G A52C A98G C103G	≤ -4.2
C14A A17C A26G C57U A60C C85G C96U A97U C108U A142C	≤ -4.2
C14A G25U A52G A91G C108U	≤ -4.2
C14A C27G C35A C87U C116A U135G	≤ -4.2
C14A A17G A22U A24C A41C G70A U78A U90C C129U	≤ -4.2
C14A C38A G68U C87U A91C C132U A142C U144C A147G	≤ -4.2
C14A A16U A19U A52G G68A C85G U151G	≤ -4.2
C14G C85U C103U	-3.1
C14G A30U U61A G92A C99A	≤ -4.2
U13G U33G C54U	≤ -4.2
C14G A17G C27U C96G A122G G141C	≤ -4.2
C14A C72G G80C C99U	≤ -4.2
C14A U55A U56A G100C	≤ -4.2
C14G C27A C93A A150C	≤ -4.2
C14G G62A G81A A91G C95U U109G G133A U146G	≤ -4.2

Variant	polymerase ribozyme fitness (log ratio)
C14G G68A C79A C93U G136A	≤ -4.2
C14G A89U C99A A107C	≤ -4.2
C14A G80C G86U C118U	≤ -4.2
C14G A30C A39G A110G	≤ -4.2
C14A G65A U102G G117A A120U	≤ -4.2
C14G G94A A106C G136A	-3.64
C14G A24U C51A U61G G80C G94A	≤ -4.2
C14G A20U A39U U82A C87A G124A	≤ -4.2
C14A A22G A29G U44G G62A C85G A89U	≤ -4.2
C14G A17G A20U A24U C27U U90C C132U	≤ -4.2
C14G A29U A73G G86U C116A U135C	≤ -4.2
C14A C57A G80A C93U A107G G126U	≤ -4.2
U13G U77G A107U	≤ -4.2
C14G A23C C38U C95G A98G A107G	≤ -4.2
C14G A20U C105U C125G G140A	≤ -4.2
U13G G48A C75A C93G C125U	≤ -4.2
U13G G25C A40U C85A	≤ -4.2
U13G U44A G124C U144G	≤ -4.2
C14A A17U A24C C57U G58C C87A	≤ -4.2
C14G A47G A52C A64G C87A G126A	≤ -4.2
C14G A20C G92C C125G	-3.88
C14G A40C C57G	-2.31
C14A C116G	-0.826
C14A A16G	-0.651

Variant	polymerase ribozyme fitness (log ratio)
C14G C85U	-2.1
C14G C32G A52C A97U	≤ -4.2
C14A A17C G58U G84A U102G G126C G140C U144A	≤ -4.2
C14G A28C G70A U127G U146G	≤ -4.2
C14A C69G C75A G92U G140U	≤ -4.2
C14A G59A G74A G80C G100A A110U	≤ -4.2
C14G G74C C87A C114U A120U C125G U127G	≤ -4.2
C14G U31A A40C C51G G83U	≤ -4.2
U13G U15G C36G U44A A73U A97G A115U U148G	≤ -4.2
C14A A52G U53A U56A G70U C75U C96U C132G U135G	≤ -4.2
C14A G46C C75G C87A A89U U90G C96U U102G G140A	≤ -4.2
C14A G50A C85G C96A	≤ -4.2
C14A A26U A60U C75G A122U A138C	≤ -4.2
C14A A60G C85G C118G C132U	-3.89
U13G G68A C96U U101G C131U	≤ -4.2
C14A C85A	-2.69
C14G A16U G68A G80A C93U U104A	≤ -4.2
C14G A26U C43G A60U A64G U77A G88C C116G	≤ -4.2
C14G G50C C51U C79U C85A C125A	≤ -4.2
C14A A21C A22C	-0.829
C14A U82G C96G	-2.31
C14A U53A C96A C116A A150C U151A	≤ -4.2
C14G G59C C69A A142G	≤ -4.2
